Results taken from paper PMC4336329 (PLoS ONE, 2015).
Screen size: about 310,000 compounds; about 14,000 (4.5%) showed an effect of 50% or more. Effects have a minus sign here. Some of the results follow.

These compounds were tested against human ether-à-go-go-related gene (hERG) potassium channel (human, UniProt Q12809) (assay: primary screen, population patch clamp on CHO cells stably expressing hERG).
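Note: peak tail current of the secondary pulse compared with the same well before compound.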

Sequence of human ether-à-go-go-related gene (hERG) potassium channel (Q12809 whole entry, looked up): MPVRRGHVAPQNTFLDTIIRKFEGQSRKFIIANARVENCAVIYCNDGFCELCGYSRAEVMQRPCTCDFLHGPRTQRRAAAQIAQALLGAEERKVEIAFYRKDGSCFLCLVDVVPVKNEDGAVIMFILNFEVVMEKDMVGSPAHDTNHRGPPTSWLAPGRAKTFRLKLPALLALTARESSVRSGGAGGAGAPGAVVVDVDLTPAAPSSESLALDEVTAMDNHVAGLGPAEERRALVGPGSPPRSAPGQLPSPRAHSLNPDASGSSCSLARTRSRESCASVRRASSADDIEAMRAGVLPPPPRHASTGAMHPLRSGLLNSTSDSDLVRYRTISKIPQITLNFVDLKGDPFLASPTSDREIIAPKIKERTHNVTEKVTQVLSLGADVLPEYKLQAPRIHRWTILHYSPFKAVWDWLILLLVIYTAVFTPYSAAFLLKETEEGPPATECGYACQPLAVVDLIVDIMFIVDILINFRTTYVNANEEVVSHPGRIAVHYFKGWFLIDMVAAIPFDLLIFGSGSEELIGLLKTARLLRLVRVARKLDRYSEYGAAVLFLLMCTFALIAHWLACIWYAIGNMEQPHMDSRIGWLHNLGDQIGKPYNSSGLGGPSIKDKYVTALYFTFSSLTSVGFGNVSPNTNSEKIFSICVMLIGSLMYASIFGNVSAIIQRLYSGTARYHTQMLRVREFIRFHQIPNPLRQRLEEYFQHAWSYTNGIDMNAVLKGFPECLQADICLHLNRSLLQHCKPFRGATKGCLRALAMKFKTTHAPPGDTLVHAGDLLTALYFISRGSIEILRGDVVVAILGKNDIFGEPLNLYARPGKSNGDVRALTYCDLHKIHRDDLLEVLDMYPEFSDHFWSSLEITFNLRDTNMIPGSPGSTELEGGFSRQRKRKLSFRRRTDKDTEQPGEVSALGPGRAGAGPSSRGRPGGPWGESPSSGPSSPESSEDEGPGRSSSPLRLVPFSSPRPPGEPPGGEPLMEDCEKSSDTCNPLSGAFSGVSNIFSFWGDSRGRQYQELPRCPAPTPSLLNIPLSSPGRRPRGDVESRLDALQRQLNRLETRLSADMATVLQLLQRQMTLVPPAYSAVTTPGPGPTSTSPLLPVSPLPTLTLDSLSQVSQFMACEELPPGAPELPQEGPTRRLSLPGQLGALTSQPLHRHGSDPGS

| SMILES | hERG current change (%, negative = inhibition) at 10uM |
| --- | --- |
| CC(C)c1ccc(NC(=O)NC2CCN(CC(=O)Nc3cccc4ccccc34)CC2)cc1 | -22.3% |
| CCOc1ccc(CNC(=O)c2ccc3nc(N4CCOCC4)sc3c2)cc1 | 10.7% |
| CCC(C)(C)C1CCC2(CC1)NC(=O)N(CC(=O)N1CCN(S(=O)(=O)c3cc(C)ccc3C)CC1)C2=O (stereo not shown) | 13.2% |
| O=C(CSC(=S)N1CCOCC1)Nc1nc(=O)c2ccccc2s1 | 14.3% |
| CCSc1nnnn1-c1ccccc1 | 6.83% |
| O=c1[nH]c(=O)n(C2CCCCCC2)c(O)c1C=NCC1CCCO1 (stereo not shown) | 4.16% |
| COc1ccc2c(C)c(Cl)c(=O)oc2c1 | -7.56% |
| O=C(O)c1ccc([N+](=O)[O-])c(CS(=O)(=O)c2ccccc2)c1 | 19.5% |
| COc1cccc(N2CCN(C3CCCC(C)C3)CC2)c1 (stereo not shown) | -23.8% |
| O=[N+]([O-])c1ccc(-c2ccc(S(=O)(=O)N3CCOCC3)cc2)cc1 | -29.8% |
| CC1CCCCC12NC(=O)N(CC(=O)Nc1sccc1C(N)=O)C2=O (stereo not shown) | 1.18% |
| O=C(NCCc1ccccc1)C1CCC(=O)N1C1CCCC1 (stereo not shown) | 13.8% |
| CCN(CC)S(=O)(=O)c1ccc2c(c1)N(CC(=O)N1CCCC1)C(=O)CO2 | -5.64% |
| O=S(=O)([O-])c1ccc(N2N=C(c3ccccc3)CC2c2ccccc2)cc1.[Na+] (stereo not shown) | 7.75% |
| O=C(Oc1cccc2ccccc12)c1cc(Cl)nc2ccccc12 | -5.31% |
| COc1cc(O)c(NC(C)=O)c2nonc12 | 11.2% |
| COc1ccc2cc(-c3ccccc3)ncc2c1 | 5.65% |
| CC(Oc1ccc(-c2ccccc2)cc1)C(=O)N/N=C/c1cccnc1 (stereo not shown) | -13.1% |
| COC(=O)N/N=C/c1ccc(OC(=O)/C=C/c2ccco2)cc1 | -1.51% |
| COc1cc(CNCCCN2CCOCC2)c(Br)cc1OCC(=O)Nc1ccccc1C | -15.3% |

| SMILES | hERG current change (%, negative = inhibition) at 10uM |
| --- | --- |
| CCCCN(CCCC)CC(O)Cn1c2ccccc2c(=O)c2ccccc21 (stereo not shown) | -68% |
| Cc1nnc(CN(C)C(=O)c2cc(COc3ccc(C)c(C)c3)on2)o1 | 6.24% |
| CCCCNC(=O)C1CCCN1C(=O)NC1CCCCC1 (stereo not shown) | 17% |
| C=C1C2(C(=O)Nc3ccc(SC(F)F)cc3)CCC(C2)C1(C)C (stereo not shown) | -2.78% |
| Cc1ccc(N2C(=O)[C@@H]3Cc4ccccc4CN3C2=O)cc1 | -3.34% |
| COc1cccc(NC(=O)Nc2nnc(CC(=O)NCc3ccccc3)s2)c1 | -10.4% |
| O=C1C2(c3ccccc3)CN3CN(C2)CC1(c1ccccc1)C3 | -4.78% |
| CC1Cc2cc(/C(O)=C3\C(=O)C(=O)N(Cc4cccnc4)C3c3ccccc3F)ccc2O1 (stereo not shown) | 13.1% |
| CN(C(=O)CN1CC=C(c2ccccc2)CC1)c1c(N)n(Cc2ccccc2)c(=O)[nH]c1=O | 25.8% |
| CC(=O)Nc1c(-c2ccc(Cl)cc2)c(=O)c2ccccc2n1C | 3.49% |
| CC(C)Nc1oc(Cc2cccc3ccccc23)nc1C#N | -24.3% |
| Cc1ccc(N2C(=O)CS/C2=N\C(=S)Nc2ccccc2)cc1 | 16% |
| Cc1ccc(NC(=O)CSc2nc(=O)n(CCN(C)C)c3c2CCCC3)cc1Cl | -59.8% |
| Cn1nccc1-c1cc(Cl)cc(Cl)c1O | 11.4% |
| O=C(CCCNS(=O)(=O)c1cccc2nsnc12)N1CCCCC1 | 10.7% |
| Cc1ccc(-c2ccc(C(=O)Nc3ccccc3)o2)c2ccccc12 | 10.5% |
| Cc1ccc(C(O)c2nc3ccccc3n2C(C)C)cc1 (stereo not shown) | 3.73% |
| Cc1cc(=O)n2[nH]c(-c3ccccc3)cc2n1 | 9.91% |
| C=CCn1c(CC(=O)Nc2ccc(C)cc2C)nnc1SCC(=O)N1CCOCC1 | 9.47% |
| CCOCCCn1c(=S)[nH]c2cc(C(=O)NC3CCCC(C)C3C)ccc2c1=O (stereo not shown) | 8.42% |

| SMILES | hERG current change (%, negative = inhibition) at 10uM |
| --- | --- |
| O=C(c1ccccc1)C(C(=O)N1CCc2ccccc2C1)n1ccccc1=O (stereo not shown) | -14.5% |
| COc1ccc(CCNCCN2CCOCC2)cc1.Cl | 20.7% |
| Cc1ccc(-c2cc(C(=O)Nc3c(C#N)cnn3C)no2)cc1 | -9.27% |
| COc1ccc(S(=O)(=O)N2CCCCCC2)cc1C(=O)OCc1c(C)noc1C | -28.2% |
| O=c1[nH]cnc2cc(-c3ccccc3)sc12 | -8.55% |
| COc1ccc2c(/C=C/c3cc[n+](C)cc3)c[nH]c2c1.[I-] | 11.1% |
| COc1ccccc1N1CCN(C(=O)CCNS(=O)(=O)c2ccc3c(c2)CCC(=O)N3)CC1 | 2.7% |
| COc1ccccc1C(C)NC(=O)c1ccc(NC(=O)CC2SC(N3CCCC3)=NC2=O)cc1 (stereo not shown) | 13.1% |
| O=C1CC2(CCN(C(=O)COc3ccc(F)cc3)CC2)Oc2ccccc21 | -42.6% |
| COc1ccc(OCC(=O)Nc2ccc3c(c2)OCO3)cc1 | -0.489% |
| Cc1ccc([N+](=O)[O-])cc1NC(=O)Nc1ccc(S(N)(=O)=O)cc1 | 17.6% |
| COc1ccccc1-n1c(=O)[nH]c2c(C(N)=O)nc(-c3cccnc3)nc21 | 6.19% |
| C=CCNC(=S)NNC(=O)c1ccc(Br)o1 | 9.05% |
| CC(C)c1ccc(CCNC(=O)CCNS(=O)(=O)c2ccc(Br)cc2)cc1 | 13% |
| COc1ccc(NC(=O)NCCN2CCN(c3ccc(C)cc3)CC2)c(Cl)c1 | -8.96% |
| Cc1cc(C)n(-c2nc3c(c(=O)[nH]c(=O)n3C)n2CC(O)COc2ccc(Cl)cc2Cl)n1 (stereo not shown) | -3.56% |
| CC(N)c1ccc(Cl)cc1Cl (stereo not shown) | 23.2% |
| C=C1C[C@]2(O)[C@@]3(C)CCC(=O)C(C)(C)C3=C(O)C(=O)[C@@]2(C)[C@@H]2C(=O)O[C@@](C)(C(=O)OC)C(=O)[C@@]12C | -0.999% |
